Measurements: the RNAGym collection of RNA variant scans (doi:10.1101/gad.245936.114)
This sample is rich in variants without activity.

B1: tRNA (parent)
chain: CUCUCGGUAGCCAAGUUGGUUUAAGGCGCAAGACUUUAAUUUAUCACUACGAAAUCUUGAGAUCGGGCGUUCGACUCGCCCCCGGGAGAUUUUUUCCUCGAGCAA

Variants of: B1
Test: nonsense suppression (GFP-seq) (ratio to wild type); higher = more function; SUP4oc tRNA, yeast GFP reporter sort-seq
In short: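 Nonsense suppression (GFPSEQ) is the median GFP/RFP ratio of each sorting bin, weighted by the variant's estimated share of cells in that bin and expressed relative to the unmutated parent tRNA. Yeast strains carried genome-integrated variants of an ochre-suppressor tRNA from a library with ~3% random mutations, plus a galactose-driven GFP ochre reporter and RFP, and were grown in raffinose/galactose medium containing 80 mg/L adenine. Cells were sorted into GFP/RFP bins, each bin was Illumina-sequenced (phred ≥30), and variants were kept only with ≥100 reads and ≥30 cells.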

Variant	nonsense suppression
A13U A14G G65C G67A U70A	≤ 0.026
A13U A14G U16A G26A	≤ 0.026
A13U A14U A60C	≤ 0.026
A13U A23U A33C	≤ 0.026
A13U A24G A62U G65U	≤ 0.026
A13U A24G G26C G32C A89C	≤ 0.026
A13U A24G G61C	0.0375
A13U A24G G69C U71C G84U	≤ 0.026
A13U A31G	1.22
A13U A33C	≤ 0.026
A13U A33G U57C G65A	≤ 0.026
A13U A33U G78A	≤ 0.026
A13U A62C C64A	≤ 0.026
A13U A62C U71A C79A A87U	≤ 0.026
A13U C27U	0.209
A13U C27U G73U C79A	≤ 0.026
A13U C34A G61C G85C	≤ 0.026
A13U C34G C56A	≤ 0.026
A13U C34G C77U	≤ 0.026
A13U C34G U35G G88U	≤ 0.026
A13U C34U A60C G73A	≤ 0.026

Variant	nonsense suppression
A13U C34U C83U	≤ 0.026
A13U C56G	≤ 0.026
A13U C56G A62G	≤ 0.026
A13U C72G	0.032
A13U C77U	0.0452
A13U C77U G84U	≤ 0.026
A13U C79U	0.175
A13U C81A	≤ 0.026
A13U C81G	0.0578
A13U C81G G84U	≤ 0.026
A13U G15A G73U	≤ 0.026
A13U G15C U76A G85C	≤ 0.026
A13U G15U	≤ 0.026
A13U G15U A54U C68U	≤ 0.026
A13U G15U C27U U70C	≤ 0.026
A13U G15U G28A U63A	≤ 0.026
A13U G18A A24C C29U C56A G88A	≤ 0.026
A13U G18U A54U C82G	≤ 0.026
A13U G25C G32A A62C	≤ 0.026
A13U G25U	≤ 0.026
A13U G25U A33G C34U A60C	≤ 0.026

Variant	nonsense suppression
A13U G26A G78A	≤ 0.026
A13U G26U A89G	≤ 0.026
A13U G28U	≤ 0.026
A13U G28U A30C U55G	≤ 0.026
A13U G28U U55G	≤ 0.026
A13U G32C G65C A87U	≤ 0.026
A13U G32U C77A	≤ 0.026
A13U G59C	≤ 0.026
A13U G59U C80G	≤ 0.026
A13U G61U C72U U76G	≤ 0.026
A13U G61U U71A A89G	≤ 0.026
A13U G65C C75A G84A	≤ 0.026
A13U G65C G86U	≤ 0.026
A13U G67A	0.0502
A13U G69A	0.072
A13U G73C	≤ 0.026
A13U G78C	0.0621
A13U G86C	≤ 0.026
A13U U17G C29U G84U	≤ 0.026
A13U U20A	0.189
A13U U21A U35C G84U	≤ 0.026

Variant	nonsense suppression
A13U U22G G84U	≤ 0.026
A13U U22G U57G C72G	≤ 0.026
A13U U35C G61A A62C	≤ 0.026
A13U U35C U57C U58C G84A	≤ 0.026
A13U U35G U55C U63A G67A G85A	≤ 0.026
A13U U55C A87C	≤ 0.026
A13U U55C C79U	≤ 0.026
A13U U57A	0.0273
A13U U57G A87G	≤ 0.026
A13U U58A U63G	≤ 0.026
A13U U58G A74U C75G	≤ 0.026
A13U U70A C81U	≤ 0.026
A14C	≤ 0.026
A14C A24C	≤ 0.026
A14C A30G A33U U35G	≤ 0.026
A14C A30G G61A G67A	≤ 0.026
A14C A31C U58C C72A U76C C77U	≤ 0.026
A14C A33G	≤ 0.026
A14C A33G G59U A60C	≤ 0.026
A14C A33G U57G	≤ 0.026
